Test results reported in PubChem BioAssay (NCI).
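Results reflect a 48-hour exposure of cells in 96-well plates to compound at five concentrations. GI50 marks 50% less growth. TGI: concentration producing complete growth inhibition.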

System: NCI-H322M lung
Assay: NCI anticancer screen, dose series, 48 h

SMILES	GI50 [nM]	TGI [nM]
CCc1cccc2c3c(sc12)C(c1ccc(F)cc1)C(C#N)=C(/N=C/c1ccc(Cl)cc1)O3 (centres undefined)	663	> 100000
c1ccc(-c2n(Cc3ccc4ccccc4c3)c3c4ccccc4c4ccccc4c3[n+]2Cc2ccc3ccccc3c2)cc1	645	2030
